From the supplement of paper PMC4967469
IC50 is the fitted dose that halves viability relative to control wells, and lower means more sensitive; a limit (>, <) means that the fit lies beyond the doses tested. The AUC spans the tested range (256-fold, ending at the top dose) of the same fit: 1 means no effect, lower means more sensitive. For some of these results: The top dose, if marked as inferred, is not printed in the source and was worked back from the curve model.

Experiments:
Assay in all cases: Viability of human cancer cell lines after 72 h of drug (GDSC screen)
Lapatinib = compound: CS(=O)(=O)CCNCc1ccc(-c2ccc3ncnc(Nc4ccc(OCc5cccc(F)c5)c(Cl)c4)c3c2)o1 [Lapatinib]; conditions: top dose 2 µM
Protocol: (§1)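 Human cancer cell lines in 384-well plates, medium with 10% serum, drug for 72 h over a 256-fold dose range (nine 2-fold or five 4-fold steps up to the top dose). Adherent lines were fixed and stained with the nucleic acid dye Syto60, suspension lines read with resazurin; signal relative to control wells, capped at 0 and 100%. One two-parameter sigmoid per drug and line, fitted in a mixed model over all curves with the slope shared within a line.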

TGX221 = compound: Cc1cc(C(C)Nc2ccccc2)c2nc(N3CCOCC3)cc(=O)n2c1 [TGX221]; conditions: top dose 10 µM
Protocol: as §1

SB590885 = compound: CN(C)CCOc1ccc(-c2nc(-c3ccncc3)c(-c3ccc4c(c3)CC/C4=N\O)[nH]2)cc1 [SB590885]; conditions: top dose 5 µM; top dose inferred
Protocol: as §1

PD-173074 = compound: CCN(CC)CCCCNc1ncc2cc(-c3cc(OC)cc(OC)c3)c(NC(=O)NC(C)(C)C)nc2n1 [PD-173074]; conditions: top dose 2 µM; top dose inferred
Protocol: as §1

Cell Line | AUC (Lapatinib) | IC50 (Lapatinib) | AUC (TGX221) | IC50 (TGX221) | AUC (SB590885) | IC50 (SB590885) | AUC (PD-173074) | IC50 (PD-173074)
LB647-SCLC (small cell lung carcinoma, semi-adherent) | 0.938 | > 2000 nM | 0.98 | > 10000 nM | 0.95 | > 5000 nM | 0.897 | > 2000 nM
LB771-HNC (head and neck, adherent) | 0.894 | > 2000 nM | 0.973 | > 10000 nM | 0.91 | > 5000 nM | 0.982 | > 2000 nM
LB831-BLC (bladder, adherent) | 0.979 | > 2000 nM | 0.928 | > 10000 nM | 0.987 | > 5000 nM | 0.978 | > 2000 nM
LB996-RCC (kidney, adherent) | 0.721 | 592 nM | 0.872 | > 10000 nM | 0.983 | > 5000 nM | 0.979 | > 2000 nM
LB1047-RCC (kidney, adherent) | 0.864 | > 2000 nM | 0.945 | > 10000 nM | 0.983 | > 5000 nM | 0.937 | > 2000 nM
LB2518-MEL (melanoma, adherent) | 0.987 | > 2000 nM | 0.955 | > 10000 nM | 0.987 | > 5000 nM | 0.984 | > 2000 nM
LC4-1 (lymphoblastic leukaemia, suspension) | 0.983 | > 2000 nM | 0.88 | > 10000 nM | 0.985 | > 5000 nM | 0.979 | > 2000 nM
LC-2-ad (lung adenocarcinoma, adherent) | 0.937 | > 2000 nM | 0.949 | > 10000 nM | 0.975 | > 5000 nM | 0.922 | > 2000 nM
LNCaP-Clone-FGC (prostate, adherent) | 0.982 | > 2000 nM | 0.982 | > 10000 nM | 0.984 | > 5000 nM | 0.982 | > 2000 nM
LOUCY (T-cell lymphoblastic leukaemia, suspension) | 0.991 | > 2000 nM | 0.99 | > 10000 nM | 0.98 | > 5000 nM | 0.88 | 1430 nM
LOXIMVI (melanoma, semi-adherent) | 0.989 | > 2000 nM | 0.99 | > 10000 nM | 0.826 | 2590 nM | 0.988 | > 2000 nM
LP-1 (myeloma, suspension) | 0.984 | > 2000 nM | 0.985 | > 10000 nM | 0.993 | > 5000 nM | 0.99 | > 2000 nM
LS-1034 (large intestine, adherent) | 0.985 | > 2000 nM | 0.985 | > 10000 nM | 0.986 | > 5000 nM | 0.979 | > 2000 nM
LU-65 (large cell lung carcinoma, suspension) | 0.962 | > 2000 nM | 0.978 | > 10000 nM | 0.987 | > 5000 nM | 0.987 | > 2000 nM
LU-134-A (small cell lung carcinoma, suspension) | 0.963 | > 2000 nM | 0.987 | > 10000 nM | 0.986 | > 5000 nM | 0.973 | > 2000 nM
LU-139 (small cell lung carcinoma, suspension) | 0.972 | > 2000 nM | 0.978 | > 10000 nM | 0.772 | 2500 nM | 0.838 | 1940 nM
LU-165 (small cell lung carcinoma, suspension) | 0.986 | > 2000 nM | 0.988 | > 10000 nM | 0.987 | > 5000 nM | 0.987 | > 2000 nM
LXF-289 (lung adenocarcinoma, adherent) | 0.941 | > 2000 nM | 0.856 | 7860 nM | 0.963 | > 5000 nM | 0.946 | > 2000 nM
MC116 (B-cell lymphoma, suspension) | 0.999 | > 2000 nM | 0.991 | > 10000 nM | 0.999 | > 5000 nM | 0.999 | > 2000 nM
MC-CAR (haematopoietic neoplasm, suspension) | 0.987 | > 2000 nM | 0.989 | > 10000 nM | 0.928 | > 5000 nM | 0.93 | > 2000 nM
MDST8 (large intestine, adherent) | 0.983 | > 2000 nM | 0.982 | > 10000 nM | 0.962 | > 5000 nM | 0.988 | > 2000 nM
ME-1 (acute myeloid leukaemia, suspension) | 0.989 | > 2000 nM | 0.989 | > 10000 nM | 0.988 | > 5000 nM | 0.98 | > 2000 nM
MEG-01 (chronic myeloid leukaemia, suspension) | 0.974 | > 2000 nM | 0.988 | > 10000 nM | 0.986 | > 5000 nM | 0.971 | > 2000 nM
MFH-ino (soft tissue, adherent) | 0.948 | > 2000 nM | 0.89 | > 10000 nM | 0.978 | > 5000 nM | 0.983 | > 2000 nM
MHH-NB-11 (neuroblastoma, adherent) | 0.983 | > 2000 nM | 0.978 | > 10000 nM | 0.985 | > 5000 nM | 0.985 | > 2000 nM
MHH-PREB-1 (B-cell leukaemia, suspension) | 0.969 | > 2000 nM | 0.943 | > 10000 nM | 0.975 | > 5000 nM | 0.971 | > 2000 nM
ML-2 (acute myeloid leukaemia, suspension) | 0.989 | > 2000 nM | 0.957 | > 10000 nM | 0.984 | > 5000 nM | 0.989 | > 2000 nM
MLMA (hairy cell leukaemia, semi-adherent) | 0.986 | > 2000 nM | 0.886 | > 10000 nM | 0.953 | > 5000 nM | 0.981 | > 2000 nM
MN-60 (B-cell leukaemia, suspension) | 0.988 | > 2000 nM | 0.988 | > 10000 nM | 0.987 | > 5000 nM | 0.985 | > 2000 nM
